Whole data set: some 33,000 sequences, median “E-score (-0.5 to 0.5)” near -0.013, cut for the highest 2% near 0.3. The list shows a part of the results.
Target: T1, Msn1 (UniProt P22148)
T1 sequence: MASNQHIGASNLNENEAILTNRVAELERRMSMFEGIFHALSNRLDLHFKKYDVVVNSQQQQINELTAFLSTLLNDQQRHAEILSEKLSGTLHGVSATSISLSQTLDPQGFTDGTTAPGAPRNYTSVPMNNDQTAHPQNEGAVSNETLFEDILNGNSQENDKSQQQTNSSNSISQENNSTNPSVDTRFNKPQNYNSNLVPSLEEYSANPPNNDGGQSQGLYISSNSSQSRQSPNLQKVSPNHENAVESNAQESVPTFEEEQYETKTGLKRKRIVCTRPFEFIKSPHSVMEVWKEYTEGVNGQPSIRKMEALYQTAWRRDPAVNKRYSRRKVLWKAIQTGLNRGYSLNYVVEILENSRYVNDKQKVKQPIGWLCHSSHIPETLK
Experiment: PBM E-score (8-mer binding enrichment) (E-score (-0.5 to 0.5)); higher = stronger / more preferred TF binding; most listed sequences are background and not binding sites
Conditions: protein concentration: 200 nM; construct: GST-full length
Summary of the method: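 Yeast transcription factors, full-length or as DNA-binding domains, were expressed with a GST tag using PURExpress in vitro transcription/translation. At about 100-200 nM they were applied to universal all-10-mer Agilent arrays, double-stranded by primer extension on fresh or once-stripped slides. Fluorescent anti-GST detected bound protein, and masliner normalised the scans. E-scores for ungapped eight-base words, pooled with reverse complements, came from the Universal PBM Analysis Suite.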

Row | Sequence | PBM E-score
1 | GCGGTCAC | -0.172
2 | TAGGCGAA | -0.0403
3 | AGGACCTA | 0.0657
4 | ACGAGACC | -0.0967
5 | CGCAGGCG | -0.134
6 | AGCGATAG | -0.16
7 | CCATGTTA | 0.119
8 | CCTCGTAA | 0.0848
9 | AGCGTCGG | 0.0359
10 | TAATACCA | 0.174
11 | ACAGAGAG | -0.195
12 | AACTTCTA | -0.0235
13 | CCAGTTTA | -0.0582
14 | ATAGCAAC | -0.0933
15 | AAGAGGGA | -0.207
16 | CGACGCAA | 0.0192
17 | TCGCCGCA | -0.166
18 | AGAGACGG | -0.111
19 | AGGTGTGA | -0.175
20 | AGTCTGTC | 0.0754
21 | ACTAGTGG | 0.131
22 | CCGCGCGG | 0.232
23 | CGGGTCCA | -0.0128
24 | AGGGTGCG | -0.228
25 | ACAATACA | 0.0447

Row | Sequence | PBM E-score
26 | CGATACAA | 0.149
27 | AGAGAGCA | -0.26
28 | ACCAATAC | 0.0858
29 | TTAACAAA | 0.204
30 | GCGTCGCA | -0.182
31 | CACAAATA | 0.185
32 | TCCCGCGA | -0.0223
33 | CGCCGTAG | 0.0177
34 | GGCGAACC | -0.109
35 | CAAAACTC | 0.166
36 | ACTTATGC | 0.0829
37 | GAGATATC | 0.0403
38 | CGAATTAC | -0.0698
39 | GCCCGCTA | -0.211
40 | TGATGACA | 0.299
41 | CCCCATTC | -0.12
42 | CGAGTTCC | 0.0314
43 | TAATCATA | 0.168
44 | GAAACTGC | -0.196
45 | GGAGGTAC | -0.169
46 | ATGCCACA | 0.0572
47 | AGGAGCGG | -0.424
48 | AAGGCCAC | -0.252
49 | GCCGGGAC | 0.119
50 | GACGCCGA | 0.0972

Row | Sequence | PBM E-score
51 | CCACCAGC | -0.136
52 | AGTACCTA | 0.04
53 | TATGAATA | 0.114
54 | GTAAACAC | 0.0263
55 | AGTTAACA | 0.0679
56 | CACTTTCA | 0.0218
57 | GACCGTCA | 0.0609
58 | GCATGACC | -0.202
59 | AACAGCAT | -0.0683
60 | ATAGGGCA | -0.101
61 | CCATACCG | -0.101
62 | TCGGAAAA | 0.245
63 | AATGACCA | 0.181
64 | AGTTCGAC | -0.0162
65 | CGTGCACA | -0.0375
66 | ATGCATTC | 0.0542
67 | GCTCCGCA | -0.0375
68 | GCAACTTA | 0.0391
69 | CCCTCGAA | -0.0781
70 | CATAGCCG | 0.128
71 | GTGCTAAA | 0.00368
72 | ACCACTAC | -0.179
73 | CCCAGGAG | -0.422
74 | CCAGGGCA | -0.197
75 | AGTACTTA | 0.0636

Row | Sequence | PBM E-score
76 | ATAAGGTC | 0.0376
77 | ACGGGATA | 0.0493
78 | AGCCAACG | -0.102
79 | CAGAACAA | 0.296
80 | CCTCGAGC | -0.0308
81 | AGCGAACT | -0.0798
82 | GACATATC | 0.451
83 | CAACATCG | 0.0789
84 | ACGGGTAT | -0.0412
85 | GGCAACTA | 0.0447
86 | ACATAGGG | -0.00128
87 | GCTTTACA | 0.0483
88 | GATAAACA | 0.0551
89 | CGGATCAG | -0.0123
90 | CAACGTTG | 0.128
91 | GGCGTCCA | -0.0363
92 | AATTCGGA | 0.151
93 | CTCGTTAA | -0.00553
94 | ACGTTTAA | 0.0902
95 | ATCTTTGC | 0.0934
96 | AGTCAAAC | 0.0149
97 | GCAAACAA | 0.0522
98 | CGAGGCTA | -0.117
99 | CAAGTAAC | 0.0554
100 | AACGAGTT | -0.07

Row | Sequence | PBM E-score
101 | CAACTAAA | 0.107
102 | GCACTCTA | -0.0404
103 | ATGTATGA | 0.186
104 | CCCATTGA | -0.248
105 | GCCATCAC | -0.175
106 | AACTAGTA | 0.00606
107 | AGAATACT | 0.0795
108 | AAGTGTCC | 0.366
109 | CCCAGAAG | -0.159
110 | CAACCAGA | 0.102
111 | AGCCTTGG | -0.0975
112 | ACGATCAG | -0.0455
113 | TGAAAGCA | 0.139
114 | CTGAGCCA | 0.0268
115 | AACATCTC | 0.123
116 | GTAACCTA | -0.1
117 | GCTCCAAC | -0.111
118 | AAACTTTG | 0.102
119 | AACGAAAC | -0.0147
120 | GGGCCCTA | -0.196
121 | GGCGTCAC | -0.195
122 | CCTAAAAC | -0.0537
123 | ATCGCCAC | -0.07
124 | AGGATTAC | -0.243
125 | CTTCCACA | 0.00836

Row | Sequence | PBM E-score
126 | TACTCATA | -0.0181
127 | ATGTTAAG | 0.091
128 | GGTCTGGA | -0.125
129 | ACGAGCTA | -0.192
130 | GAAATCCC | 0.0541
131 | CTTGATAC | 0.23
132 | GGACACCA | 0.255
133 | GAGCACTC | -0.0598
134 | CAGGCGCC | -0.0891
135 | GCCATAAC | -0.0124
136 | AAGCGCAC | -0.17
137 | AGGGTTGG | -0.02
138 | CAATTTTA | 0.211
139 | TACCGATA | 0.0569
140 | AATTGTCT | 0.406
141 | GCCTCAGA | -0.122
142 | CGAACTCC | 0.226
143 | CAACCCCG | -0.101
144 | AACCCAGC | -0.188
145 | GCGGACAC | 0.162
146 | GCCTATAA | 0.0368
147 | AGAATTTG | 0.158
148 | GTGTCAAC | -0.139
149 | AAAGCTGG | -0.045
150 | ATGCAACA | -0.101

Row | Sequence | PBM E-score
151 | CACAGTCG | -0.072
152 | TATATCCA | 0.0098
153 | AACCAGGG | -0.183
154 | GTAGGAAA | -0.0401
155 | ATATATAC | 0.252
156 | CATTCAAA | 0.0752
157 | AGCTCCCG | -0.253
158 | GCTCCGTA | -0.0119
159 | CAACCCGA | 0.0882
160 | ATTAATTA | 0.0938
161 | AGGAGTGA | -0.125
162 | AAACTACC | 0.0926
163 | CGTTTCGA | -0.0731
164 | ACGTGGCC | -0.156
165 | AAACACGG | 0.0842
166 | ACGCGAAG | 0.0703
167 | AGAGGGGG | -0.421
168 | ACATGGCA | 0.123
169 | ACATTGTG | 0.207
170 | AACCCCAT | -0.0934
171 | CAAGCACG | -0.0529
172 | GACTCCCC | -0.207

— the supplement of paper PMC3334620
